Measurements: US20200377555A1 (Janssen / Centocor, published 2020)

Legend:
[1] = biological target: UFV180501 H2 A/Singapore/1/57 (influenza A H2 A/Singapore/1/57); assay: AlphaLISA binding curves, culture supernatant
[2] = biological target: UFV180498 H1 A/Puerto Rico/8/1934 (influenza A H1 A/Puerto Rico/8/1934); assay: AlphaLISA binding curves, culture supernatant

B1: MD3606 (Fc fusion)
chain: EVQLVESGGGLVQPGGSLRLSCAVSISIFDIYAMDWYRQAPGKQRDLVATSFRDGSTNYADSVKGRFTISRDNAKNTLYLQMNSLKPEDTAVYLCHVSLYRDPLGVAGGMGVYWGKGALVTVSSGGGGSGGGGSEVQLVESGGGLVQAGGSLKLSCAASGRTYAMGWFRQAPGKEREFVAHINALGTRTYYSDSVKGRFTISRDNAKNTEYLEMNNLKPEDTAVYYCTAQGQWRAAPVAVAAEYEFWGQGTQVTVSSGGGGSGGGGSEVQLVESGGGLVQPGGSLRLSCAATGFTLENKAIGWFRQTPGSEREGVLCISKSGSWTYYTDSMRGRFTISRDNAENTVYLQMDSLKPEDTAVYYCATTTAGGGLCWDGTTFSRLASSWGQGTQVTVSSGGGGSGGGGSEVQLVESGGGLVQPGGSLKLSCAASGFTFSTSWMYWLRQAPGKGLEWVSVINTDGGTYYADSVKDRFTISRDNAKDTLYLQMSSLKSEDTAVYYCAKDWGGPEPTRGQGTQVTVSS[sequence of human IgG1 Fc not given]
[1]
  binding result: binds
[2]
  binding result: binds
